To fix the notation:
B1: PhoQ; a variant is named by its letters at X, in order, P23837 (parent)
chain: MKKLLRLFFPLSLRVRFLLATAAVVLVLSLAYGMVALIGYSVSFDKTTFRLLRGESNLFYTLAKWENNKLHVELPENIDKQSPTMTLIYDENGQLLWAQRDVPWLMKMIQPDWLKSNGFHEIEADVNDTSLLLSGDHSIQQQLQEVREDDDDAEMTHSVAVNVYPATSRMPKLTIVVVDTIPVELKSSYMVWSWFIYVLSANLLLVIPLLWVAAWWSLRPIEALAKEVRELEEHNRELLNPATTRELTSLVRNLNRLLKSERERYDKYRTTLTDLTHSLKTPLXXLQXXLRSLRSEKMSVSDAEPVMLEQISRISQQIGYYLHRASMRGGTLLSRELHPVAPLLDNLTSALNKVYQRKGVNISLDISPEISFVGEQNDFVEVMGNVLDNACKYCLEFVEISARQTDEHLYIVVEDDGPGIPLSKREVIFDRGQRVDTLRPGQGVGLAVAREITEQYEGKIVAGESMLGGARMEVIFGRQHSAPKDE

The results in this text go back to a collection of fitness landscapes (doi:10.1126/science.1257360).

This is one part of the list.

Variants of B1 are the subject of the test. As to the kind of experiment: enrichment ratio after two sorts for PhoP signalling (ratio (wild type AVST 3.29)); higher = more functional. Particulars: with PhoP (E. coli).
Take NCAL: the enrichment ratio was no more than 0.25.

As to MLLC, the enrichment ratio was no more than 0.25.

In the case of YHMG, the enrichment ratio is no more than 0.25.

Take LHSL: the enrichment ratio was no more than 0.25.

As for QKEG, the enrichment ratio is no more than 0.25.

For HMLM, the enrichment ratio is no more than 0.25.

Take PGTK: the enrichment ratio is no more than 0.25.

Turning to RDMT, the enrichment ratio is no more than 0.25.

For QAPF, the enrichment ratio was no more than 0.25.

Consider SDGL, for which the enrichment ratio was no more than 0.25.

In the case of DFRY, the enrichment ratio is no more than 0.25.

As to YERR, the enrichment ratio was no more than 0.25.

On to TSNY, for which the enrichment ratio worked out at 8.01.

YVRP: the enrichment ratio was no more than 0.25.

Regarding PGVY, the enrichment ratio is no more than 0.25.

With RGLG, the enrichment ratio was no more than 0.25.

With QDFS, the enrichment ratio was no more than 0.25.

Take WDHD: the enrichment ratio is no more than 0.25.

For FDQV, the enrichment ratio is no more than 0.25.

Turning to DYGF, the enrichment ratio was no more than 0.25.

As to MVML, the enrichment ratio turned out to be 11.9.

AETS: the enrichment ratio came to 20.8.

On to QHTC, for which the enrichment ratio was no more than 0.25.

Consider LWLL, for which the enrichment ratio is 0.353.

Consider NKVT, for which the enrichment ratio is no more than 0.25.

Regarding WTHL, the enrichment ratio was no more than 0.25.

With DVTA, the enrichment ratio was no more than 0.25.

As for IYDR, the enrichment ratio is no more than 0.25.

With NVRL, the enrichment ratio is no more than 0.25.

For the variant QSLQ, the enrichment ratio was no more than 0.25.

For FEEA, the enrichment ratio is no more than 0.25.

For the variant IPRK, the enrichment ratio is no more than 0.25.

As to FVTP, the enrichment ratio was no more than 0.25.

For the variant IPHD, the enrichment ratio was no more than 0.25.

On to VWPC, for which the enrichment ratio was no more than 0.25.

Regarding GSNR, the enrichment ratio was no more than 0.25.

As for AQPC, the enrichment ratio was no more than 0.25.

PCFG: the enrichment ratio was no more than 0.25.

As to LNIN, the enrichment ratio was no more than 0.25.

For GCGS, the enrichment ratio is no more than 0.25.

With SDIC, the enrichment ratio came to 15.1.

EMVR: the enrichment ratio is no more than 0.25.

Turning to LPNS, the enrichment ratio is no more than 0.25.

Consider TRRA, for which the enrichment ratio was no more than 0.25.

As to DFST, the enrichment ratio was no more than 0.25.

On to GKCF, for which the enrichment ratio is no more than 0.25.

On to RGKF, for which the enrichment ratio is no more than 0.25.

YSWA: the enrichment ratio was no more than 0.25.

For the variant LKSA, the enrichment ratio is no more than 0.25.

With AQKF, the enrichment ratio is no more than 0.25.

As to LETS, the enrichment ratio is no more than 0.25.

With PLIE, the enrichment ratio was no more than 0.25.

In the case of FQYK, the enrichment ratio is no more than 0.25.

Take PWAQ: the enrichment ratio is no more than 0.25.

Regarding GTIF, the enrichment ratio is 5.62.

As for KDCC, the enrichment ratio is no more than 0.25.

Turning to QFPL, the enrichment ratio was no more than 0.25.

Take QFAF: the enrichment ratio was no more than 0.25.

YAGY: the enrichment ratio is no more than 0.25.

Take IGVP: the enrichment ratio is no more than 0.25.

Take YQIE: the enrichment ratio is no more than 0.25.

In the case of FFSM, the enrichment ratio was no more than 0.25.

For MSNV, the enrichment ratio is no more than 0.25.

As for IIWG, the enrichment ratio is no more than 0.25.

Regarding RQQT, the enrichment ratio was no more than 0.25.

YKGK: the enrichment ratio was no more than 0.25.

DFGD: the enrichment ratio is no more than 0.25.

On to SSDQ, for which the enrichment ratio was no more than 0.25.

Regarding IFQF, the enrichment ratio is no more than 0.25.

In the case of AVQE, the enrichment ratio is no more than 0.25.

In the case of EQKY, the enrichment ratio is no more than 0.25.

Consider HRNW, for which the enrichment ratio was no more than 0.25.

For IHHC, the enrichment ratio is no more than 0.25.

Turning to MQFQ, the enrichment ratio stood at 11.9.

Take ERKY: the enrichment ratio is no more than 0.25.

As for QVMW, the enrichment ratio was no more than 0.25.

Regarding TYAQ, the enrichment ratio was no more than 0.25.

Turning to ILVS, the enrichment ratio is no more than 0.25.

In the case of WSDE, the enrichment ratio is no more than 0.25.

For ENAV, the enrichment ratio was no more than 0.25.

With VICQ, the enrichment ratio is no more than 0.25.

In the case of AQPA, the enrichment ratio was no more than 0.25.

Take LVNH: the enrichment ratio was no more than 0.25.

In the case of AWYF, the enrichment ratio was no more than 0.25.

Consider RHRL, for which the enrichment ratio is no more than 0.25.

With EMLA, the enrichment ratio is no more than 0.25.

As for YWHD, the enrichment ratio is no more than 0.25.

For SNCF, the enrichment ratio amounted to 4.82.

Consider MVAQ, for which the enrichment ratio was found to be 4.37.

On to SDEG, for which the enrichment ratio was no more than 0.25.

Regarding NWVI, the enrichment ratio is no more than 0.25.

As to HSEC, the enrichment ratio is no more than 0.25.

Turning to VGRI, the enrichment ratio was no more than 0.25.

On to KCII, for which the enrichment ratio is no more than 0.25.

In the case of QLHS, the enrichment ratio was no more than 0.25.

As for DMGG, the enrichment ratio was no more than 0.25.

As to MTVK, the enrichment ratio is no more than 0.25.

Consider TNFK, for which the enrichment ratio was no more than 0.25.

In the case of PFIL, the enrichment ratio is no more than 0.25.

With IFPS, the enrichment ratio is no more than 0.25.

For THWR, the enrichment ratio is no more than 0.25.

Take WNRQ: the enrichment ratio was no more than 0.25.

Regarding ANPA, the enrichment ratio is no more than 0.25.

Consider QKKS, for which the enrichment ratio was no more than 0.25.

NMVQ: the enrichment ratio was no more than 0.25.

With WTMA, the enrichment ratio was no more than 0.25.

FEPV: the enrichment ratio was no more than 0.25.

RSTF: the enrichment ratio is no more than 0.25.

As to IECS, the enrichment ratio was determined as 2.89.

On to MPVM, for which the enrichment ratio is no more than 0.25.

With EDIT, the enrichment ratio was no more than 0.25.

In the case of SRHV, the enrichment ratio was no more than 0.25.

For PQML, the enrichment ratio was no more than 0.25.

Regarding GPML, the enrichment ratio is no more than 0.25.

For WETE, the enrichment ratio was no more than 0.25.

Regarding ADIM, the enrichment ratio is no more than 0.25.

Take YNPV: the enrichment ratio is no more than 0.25.

For QLGD, the enrichment ratio was no more than 0.25.

As for DMAE, the enrichment ratio is no more than 0.25.

As for PQHT, the enrichment ratio is no more than 0.25.

As to GTDH, the enrichment ratio is no more than 0.25.

Turning to AHTR, the enrichment ratio was no more than 0.25.

Regarding VITM, the enrichment ratio was no more than 0.25.

As for DNQR, the enrichment ratio is no more than 0.25.

GDEI: the enrichment ratio was no more than 0.25.

With RSVI, the enrichment ratio is no more than 0.25.

Turning to TQDE, the enrichment ratio was no more than 0.25.

For the variant EAYL, the enrichment ratio was no more than 0.25.

Take HSHL: the enrichment ratio was no more than 0.25.

On to FDSW, for which the enrichment ratio was no more than 0.25.

As for TMME, the enrichment ratio was found to be 7.32.

Regarding ENQR, the enrichment ratio is no more than 0.25.

For FQYP, the enrichment ratio was no more than 0.25.

Take SRLV: the enrichment ratio is 0.905.

On to NLWK, for which the enrichment ratio is no more than 0.25.

Turning to KQYT, the enrichment ratio was no more than 0.25.

Regarding TFNS, the enrichment ratio is 2.57.

Take HDLC: the enrichment ratio is no more than 0.25.

LPHM: the enrichment ratio was no more than 0.25.

Take ASSY: the enrichment ratio worked out at 8.56.

As for VLKD, the enrichment ratio was no more than 0.25.

For HCVW, the enrichment ratio was no more than 0.25.

Regarding GLIF, the enrichment ratio was no more than 0.25.

Regarding DIED, the enrichment ratio was no more than 0.25.

On to SINT, for which the enrichment ratio was determined as 0.281.

Consider AIPE, for which the enrichment ratio is no more than 0.25.

For MTTN, the enrichment ratio was no more than 0.25.

VAAY: the enrichment ratio was no more than 0.25.

As to HMFT, the enrichment ratio was no more than 0.25.

In the case of PDQD, the enrichment ratio is no more than 0.25.

Consider NNEG, for which the enrichment ratio was no more than 0.25.

As for LHTP, the enrichment ratio is no more than 0.25.

As for SIAL, the enrichment ratio turned out to be 15.1.
